{"source": "PubChem BioAssay AID485364", "about": "(National Center for Advancing Translational Sciences (NCATS), 2010)", "note": "“And” between values parts separate entries of the source, which are not always exact repeats. Equal values may be shown once. Hit rate of the full screen: of about 360,000 compounds, about 11,000 (3.1%) were called active. Inconclusive results, whose numbers are uncertain, are shown with a selection of clear calls. The call rests on the fitted dose curve; in most records, active means well fitted inhibition curve with a large enough effect; inconclusive means small, poorly fitted or top-dose-only effect; inactive means no such curve, though single readings can be large or run the other way. No potency is given beside an inconclusive call; the fits are too rough. Potency means the concentration at half of the fitted maximal effect; tags describe the fitted curve by direction and shape."}
{"molecular_target": "Schistosoma mansoni thioredoxin glutathione reductase (TGR) (UniProt Q962Y6)", "assay": "qHTS Assay for the Inhibitors of Schistosoma Mansoni Peroxiredoxins; further: nearly all actives have a fitted effect of over 60% in size", "conditions": "purified TGR, DTNB reduction, TNB absorbance 405 nm; series mostly up to 114 µM", "how_it_was_run": "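TGR 20 nM + NADPH 100 uM (dispensed conc.), cpd preinc 15 min RT; start with NADPH (500 uM addition) then DTNB (15 mM addition). Kinetic TNB absorbance, 405 nm filter. Four-parameter Hill fit across titration.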"}
{"smiles": "CCOc1ccccc1NC(=O)c1cccc(N2C(=O)CCC2=O)c1", "Potency": "inconclusive [inhibitor, full curve, poor fit]"}
{"smiles": "CC(C)N1CCC(=NNc2ccc(S(=O)(=O)N3CCOCC3)cc2[N+](=O)[O-])CC1", "Potency": "active: 35.5 µM"}
{"smiles": "Cc1nc(C(F)(F)F)ccc1C(=O)NN1CCOCC1", "Potency": "inactive"}
{"smiles": "O=C(CC1C(=O)NCCN1Cc1ccccc1C(F)(F)F)NC1CCCCC1", "note": "(stereo unspecified)", "Potency": "active: 39.8 µM"}
{"smiles": "Nc1ccc(N2CCOCC2)c(S(=O)(=O)Nc2cc(Cl)ccc2Cl)c1", "Potency": "inconclusive [inhibitor, partial curve]"}
{"smiles": "Cc1cccc(OCCCC(=O)NC(C)C)c1", "Potency": "inactive"}
{"smiles": "O=C(c1cccnc1)N(c1cc2sc(=O)oc2c2ccccc12)S(=O)(=O)c1ccccc1", "Potency": "inconclusive [inhibitor, partial curve]"}
{"smiles": "CCCCN(C(=O)Cn1ncc(Cl)c(Cl)c1=O)c1c(N)n(CC(C)C)c(=O)[nH]c1=O", "Potency": "active: 4.47 µM"}
{"smiles": "Cc1ccc(N2CCN(C(=O)c3cccs3)CC2)cc1C", "Potency": "active: 35.5 µM"}
{"smiles": "Cc1ccccc1N1CCN(CCCOc2ccc3c(C)cc(=O)oc3c2)CC1", "Potency": "inconclusive [inhibitor, single point]"}
{"smiles": "Cc1ccc(C(O)(c2ccccc2)c2ccccc2C(C)N(C)C)c(C)c1", "note": "(stereo unspecified)", "Potency": "inactive"}
{"smiles": "CCCNC(=O)c1c(C)nn(-c2cccc(C)c2)c1-n1cccc1", "Potency": "inactive"}
{"smiles": "COc1cccc(C(=O)N2c3nc(-c4ccco4)nn3C3(CCCCC3)[C@@H]3CCCC[C@@H]32)c1", "Potency": "active: 7.94 µM"}
{"smiles": "CCc1nn(C(C)C(=O)N2CCN(c3cccc(C(F)(F)F)c3)CC2)c(=O)c2cc3occc3n12", "note": "(stereo unspecified)", "Potency": "inactive"}
{"smiles": "CC(=O)c1cccc(CN2CCCC(N3CCN(c4ccccc4F)CC3)C2)c1", "note": "(stereo unspecified)", "Potency": "inconclusive [inhibitor, single point]"}
{"smiles": "CCOC(=O)C1CCN(S(=O)(=O)c2cc3c4c(c2)CC(=O)N4CCC3)CC1", "Potency": "inactive"}
{"smiles": "O=C1NC(=Nc2ccc3ccccc3c2)S/C1=C/c1ccco1", "Potency": "active: 28.2 µM"}
{"smiles": "Cc1ccc(S(=O)(=O)N2CCCC2C(=O)NCc2ccco2)cc1", "note": "(stereo unspecified)", "Potency": "active: 50.1 µM"}
{"smiles": "O=C(O)/C=C/C(=O)NNC(=O)c1cc(-c2ccccc2)n[nH]1", "Potency": "active: 39.8 µM"}
{"smiles": "Cc1ccc(NC(=O)CN(C)Cc2c(O)ccc3ccccc23)cc1", "Potency": "active: 0.316 µM"}
{"smiles": "O=C(NO)c1ccccc1O", "Potency": "inconclusive [inhibitor, full curve, poor fit]"}
{"smiles": "CC(=O)Nc1cc([As](=O)(O)O)ccc1O", "Potency": "active: 7.08 µM"}
{"smiles": "CC(C)CCN1C(=O)c2ccccc2CC1(C)C(=O)NC1CCC(C)CC1", "note": "(stereo unspecified)", "Potency": "inactive"}
{"smiles": "Cc1ccc(/C=C2\\CCCC3=C2NC(=S)NC3c2ccc(C)cc2)cc1", "note": "(stereo unspecified)", "Potency": "inconclusive [inhibitor, partial curve]"}
{"smiles": "Cc1nc2ccccc2c(C)c1CC(=O)OC(C)C(=O)NC1(C#N)CCCCC1", "note": "(stereo unspecified)", "Potency": "inactive"}
{"smiles": "CC(C)Cn1c2c(c(O)c(C(=O)Nc3ncccc3O)c1=O)CCCC2", "Potency": "inconclusive [inhibitor, partial curve]"}
{"smiles": "COC(=O)c1cccc(C(=O)N2CCCC(Nc3ccc4c(c3)OCCO4)C2)c1", "note": "(stereo unspecified)", "Potency": "inconclusive [inhibitor, partial curve, poor fit]"}
{"smiles": "CCN1C(=O)/C(=C\\c2ccncc2)SC1=S", "Potency": "inactive"}
{"smiles": "Cc1ccccc1-n1nc(C(=O)c2cccs2)cc(-c2nc3ccccc3[nH]2)c1=N", "Potency": "inconclusive [inhibitor, partial curve]"}
{"smiles": "CN(c1ccccc1)S(=O)(=O)c1cccc(NC(=O)c2cc3ccccc3oc2=O)c1", "Potency": "inactive"}
{"smiles": "O=C(Nc1cccc2nsnc12)c1ccc(-c2ccc(Br)cc2)o1", "Potency": "active: 35.5 µM"}
{"smiles": "O=C(Nc1ccon1)c1cc(-c2ccccc2)nc2ccccc12", "Potency": "inactive"}
{"smiles": "CSc1ccccc1NC(=O)CN(C)CC(=O)c1c(C)[nH]c2ccccc12", "Potency": "inconclusive [inhibitor, full curve, poor fit]"}
{"smiles": "CCCCC(=O)NNC(=S)NC(=O)c1ccc([N+](=O)[O-])cc1", "Potency": "inconclusive [inhibitor, single point]"}
{"smiles": "Cc1cc2c(C(C)C)c(O)c(O)c(C=O)c2c(O)c1-c1c(C)cc2c(C(C)C)c(O)c(O)c(C=O)c2c1O", "Potency": "active: 35.5 µM and active: 50.1 µM"}
{"smiles": "O=C(O)c1ccc(-n2nnnc2SCc2cccc(Br)c2)cc1", "Potency": "inactive"}
{"smiles": "Cc1oc(-c2ccc(C(=O)NCc3ccc(Cl)cc3)cc2)nc1CS(=O)(=O)c1ccccc1", "Potency": "inconclusive [inhibitor, partial curve]"}
{"smiles": "Cc1ccc(NC(=O)C(C)SCc2nc3sc(C)c(C)c3c(=O)[nH]2)nc1", "note": "(stereo unspecified)", "Potency": "inactive"}
{"smiles": "CCc1cccc2c(C(=O)Cn3nnc(-c4ccc(OC)c(OC)c4)n3)c[nH]c12", "Potency": "inconclusive [inhibitor, full curve, poor fit]"}
{"smiles": "CCOc1ccccc1Nc1nnc(SCc2ccc(C(=O)OC)o2)s1", "Potency": "inconclusive [inhibitor, full curve]"}
{"smiles": "Cc1ccc(-c2noc(CCC(=O)NC3CC3)n2)cc1", "Potency": "inactive"}
{"smiles": "Oc1ccc(-c2cn3ccccc3n2)cc1O", "Potency": "inconclusive [inhibitor, partial curve]"}
{"smiles": "O=C(NCc1nc2ccccc2[nH]1)C1=C[C@@H](c2ccc(Br)cc2)C[C@@H](OCCCCO)O1", "Potency": "inactive"}
{"smiles": "O=C(O)Cn1cc(/C=C2/NC(=O)N(c3ccc(Cl)cc3)C2=O)c2ccccc21", "Potency": "inconclusive [inhibitor, single point]"}
{"smiles": "O=C1COc2ccc(C(=O)COC(=O)Cc3ccccc3)cc2N1", "Potency": "inconclusive [inhibitor, partial curve]"}
{"smiles": "COC(=O)[C@@]12CCCCN1[C@H](c1ccc(-c3ccc(F)cc3)cc1)[C@@H]1C(=O)N(C)C(=O)[C@@H]12", "Potency": "inconclusive [inhibitor, partial curve]"}
{"smiles": "Cc1ccc(C2CC(c3cccs3)=NN2S(=O)(=O)c2ccc(C)cc2)cc1", "note": "(stereo unspecified)", "Potency": "inactive"}
{"smiles": "CCOC(=O)C1CCCN(CC(=O)c2ccc(F)cc2)C1", "note": "(stereo unspecified)", "Potency": "active: 17.8 µM"}
{"smiles": "O=[N+]([O-])c1cc(S(=O)(=O)NCCN2CCOCC2)ccc1Cl", "Potency": "inconclusive [inhibitor, partial curve]"}
{"smiles": "CCn1c(COc2cccc3ccccc23)nnc1SCC(=O)OC1CCCCC1", "Potency": "inconclusive [inhibitor, partial curve]"}
{"smiles": "CCCC(O)c1nc2ccccc2n1Cc1ccccc1OC", "note": "(stereo unspecified)", "Potency": "inactive"}
{"smiles": "CCC(C)N1C(=O)/C(=C\\c2cc3c4c(c2)CCCN4CCC3)C(=O)NC1=S", "note": "(stereo unspecified)", "Potency": "inconclusive [inhibitor, full curve]"}
{"smiles": "CC(=O)c1cccc(NC(=S)NC(=O)Cc2ccc(Cl)cc2)c1", "Potency": "inconclusive [inhibitor, full curve]"}
{"smiles": "COc1ccc(Nc2cccc3ccccc23)cc1", "Potency": "inconclusive [inhibitor, partial curve]"}
{"smiles": "COc1cc(/C=C2\\CC/C(=C\\c3cc(OC)c(O)c(OC)c3)C2=O)cc(OC)c1O", "Potency": "active: 28.2 µM"}
{"smiles": "COc1ccc(C(C)=O)cc1COC(=O)Cn1cnc2ccccc2c1=O", "Potency": "active: 39.8 µM"}
{"smiles": "O=C(CSc1nnc(-c2cc3ccccc3cc2O)n1Cc1ccco1)N1CCc2ccccc2C1", "Potency": "inconclusive [inhibitor, partial curve]"}
{"smiles": "CCC(c1nnnn1C(C)(C)CC)N(CCCO)Cc1cc2cc(C)cc(C)c2[nH]c1=O", "note": "(stereo unspecified)", "Potency": "inconclusive [inhibitor, partial curve]"}
{"smiles": "O=C(CNCC1CCCO1)NCc1ccco1", "note": "(stereo unspecified)", "Potency": "inconclusive [inhibitor, partial curve]"}
{"smiles": "Cc1ccc(S(=O)(=O)NCC(c2ccco2)S(=O)(=O)c2ccccc2)cc1", "note": "(stereo unspecified)", "Potency": "active: 0.398 µM"}
{"smiles": "CC(=O)c1cccc(NC(=O)c2nc(-c3ccccc3)n(-c3cccc(Cl)c3)n2)c1", "Potency": "inactive"}
{"smiles": "CCc1ccc(NC(=O)C(=O)NCC(c2cccnc2)N2CCN(c3ccc(F)cc3)CC2)cc1", "note": "(stereo unspecified)", "Potency": "inactive"}
{"smiles": "CCn1cc(/C=C/C(=O)Nc2ccc(C)cc2Br)cn1", "Potency": "inactive"}
{"smiles": "CCCC(=O)Nc1ccc(C=C(C(C)=O)C(C)=O)cc1", "Potency": "inconclusive [inhibitor, full curve]"}
{"smiles": "COc1ccc(C(C2C(=O)CC(C)(C)CC2=O)C2C(=O)CC(C)(C)CC2=O)cc1CO", "Potency": "inconclusive [inhibitor, partial curve]"}
{"smiles": "O=C(OCc1nc2ccc(Cl)cc2n1CCO)c1ccccc1", "Potency": "active: 17.8 µM"}
{"smiles": "COc1ccc(-c2ccc(C(=O)O)o2)c([N+](=O)[O-])c1", "Potency": "inconclusive [inhibitor, partial curve]"}
{"smiles": "Cc1ccc(C(=O)Nc2nnc(C)s2)o1", "Potency": "inactive"}
{"smiles": "CC(=O)c1ccc(-n2c(CCC(=O)O)ccc2-c2ccc(Br)cc2)cc1", "Potency": "inconclusive [inhibitor, partial curve]"}
{"smiles": "CC(=O)Nc1cc2ccc(OC(C)=O)cc2oc1=O", "Potency": "inconclusive [inhibitor, full curve, poor fit]"}
{"smiles": "CCCCCOc1ccc(C(=O)CCC(=O)N2CCCC2)cc1", "Potency": "inactive"}
{"smiles": "CCCOc1cc(C)nc(-c2ccccc2O)n1", "Potency": "inactive"}
{"smiles": "O=C(CN1C(=O)/C(=C\\c2ccco2)SC1=S)Nc1ccc(O)cc1C(=O)O", "Potency": "active: 25.1 µM"}
{"smiles": "Clc1ccc(OCc2noc(-c3ccsc3)n2)c(Cl)c1", "Potency": "inactive"}
{"smiles": "CC(C)Cn1c(-c2ccccc2)nc(=S)c2c1CCCC2", "Potency": "inconclusive [inhibitor, partial curve, poor fit]"}
{"smiles": "CC(C)c1ccc(OC(=O)c2cccc(S(=O)(=O)N3CCN(C)CC3)c2)cc1", "Potency": "inconclusive [inhibitor, partial curve]"}
